# Experimental data as given in PubChem BioAssay AID1671194 (National Center for Advancing Translational Sciences (NCATS), 2021).
# Hit rate of the full screen: of about 140,000 compounds, about 240 (0.17%) were called active. Inconclusive results, whose numbers are uncertain, are shown with a selection of clear calls. The call rests on the fitted dose curve; in most records, active means well fitted inhibition curve with a large enough effect; inconclusive means small, poorly fitted or top-dose-only effect; inactive means no such curve, though single readings can be large or run the other way. Potencies beside an inconclusive call are fits to weak or partial responses and may not hold up.
# Test: Primary qHTS assay for inhibitors of alpha-synuclein gene (SNCA) expression; further: nearly all actives have a fitted effect of over 45% in size
# Conditions: HEK-293 SNCA-luciferase knock-in, luminescence, 24 h; series mostly up to 57.2 µM
# Potency means the concentration at half of the fitted maximal effect; tags describe the fitted curve by direction and shape.
row,SMILES,Potency
1,Cc1nc(N2CCCCCC2)ncc1C(=O)O,"inconclusive: 5.01 µM [inhibitor, partial curve, poor fit]"
2,COc1ccc(OC)c(C2CC(=O)Oc3c2c(=O)n(C)c2ccccc32)c1 (stereo not given),"inconclusive: 2.51 µM [inhibitor, partial curve, poor fit]"
3,COc1ccc(CNC(=O)N[C@@H]2CN(c3ncccn3)C[C@H]2CN(C)C)cc1,inactive
4,Cc1cc(NS(=O)(=O)c2ccc3oc(=O)c4ncn(C)c4c3c2)ccc1Br,"inconclusive: 22.4 µM [inhibitor, partial curve, poor fit]"
5,O=C(NCc1ccccc1)c1ccccc1OC1CN(Cc2cccc(C(F)(F)F)c2)C1,"inconclusive: 39.8 µM [inhibitor, single point]"
6,CN(Cc1ccccc1)C(=O)CSc1nc(-c2ccc(F)cc2)cc(C(F)(F)F)n1,"inconclusive: 20 µM [inhibitor, partial curve, poor fit]"
7,Cc1cccc2c1nc1n2[C@@H](CNS(=O)(=O)c2ccc(F)cc2)COC1,inactive
8,CN(C)[S+](=O)([O-])c1ccc2c(c1)OCCN(Cc1ccc(F)cc1)C2,inactive
9,CCc1ccc(NC(=O)C(CC)n2c(=O)c(-c3ccccc3NC(C)=O)nc3ccccc32)cc1 (stereo not given),"inconclusive: 39.8 µM [inhibitor, single point]"
10,COc1ccc(-c2nc3c(c(=O)[nH]2)CCN(S(=O)(=O)c2cccs2)C3)cc1,inactive
11,CN1CCC(NC(=O)C2(C)CCc3cnc(N4CCOCC4)nc32)CC1 (stereo not given),"inconclusive: 7.94 µM [inhibitor, full curve]"
12,O=C(CSc1nc(-c2ccc(F)cc2)[nH]c1-c1ccc(F)cc1)Nc1ccc2c(c1)OCCO2,"inconclusive: 10 µM [inhibitor, partial curve, poor fit]"
13,COc1ccc(-c2ccccc2)cc1N1C(=O)[C@@H]2C[C@H]1CN2C(=O)C(C)(C)C,inactive
14,O=C(c1cccc(F)c1)N1CCC2(CC1)N=C(c1ccccc1)NO2,"inconclusive: 2.24 µM [inhibitor, full curve]"
15,CN(C)S(=O)(=O)c1ccc(C(=O)NCCSc2c(-c3ccc(Cl)cc3)[nH]c3ccccc23)cc1,"inconclusive: 1.41 µM [inhibitor, full curve, poor fit]"
16,COc1cccc2c1C(=O)c1c(O)c3c(c(O)c1C2=O)C[C@@](O)(C(=O)CO)C[C@@H]3O[C@H]1C[C@H](N)[C@H](OC2CCCCO2)[C@H](C)O1 (stereo not given in full),"inconclusive: 5.41 µM [inhibitor, full curve]"
17,COc1ccc(CCC(=O)N2CCC[C@H]2c2nc(-c3ccccc3Cl)no2)cc1,"inconclusive: 25.1 µM [inhibitor, single point]"
18,COc1ccc(C(=O)NC2CC2)c(OC2CCN(Cc3cccc(SC)c3)CC2)c1,"inconclusive: 7.94 µM [inhibitor, full curve, poor fit]"
19,CC(=O)N1CCC(N2CC[C@H](CO)[C@H](N(C)C)C2)CC1,"inconclusive: 39.8 µM [inhibitor, single point]"
20,Cc1cc(C)cc(OCC(=O)c2ccc3c(c2)N(CC(=O)N(C)Cc2ccccc2)C(=O)CO3)c1,"inconclusive: 11.2 µM [inhibitor, partial curve, poor fit]"

row,SMILES,Potency
1,COc1cccc(S(=O)(=O)N2CCCC(Cc3noc(-c4cnccn4)n3)C2)c1 (stereo not given),"inconclusive: 39.8 µM [inhibitor, single point]"
2,COCCOc1ccc2c(n1)CCN(C(=O)Cc1ccc(F)cc1)C2,"inconclusive: 3.16 µM [inhibitor, single point]"
3,O=S(=O)(O)c1ccc2cc(N=Nc3cc(S(=O)(=O)O)c4cccnc4c3O)ccc2c1,"inconclusive: 30.4 µM [inhibitor, single point]"
4,O=C(c1ccc2c(c1)CCN2S(=O)(=O)c1ccc(Cl)cc1)N1CCN(c2ccc(F)cc2)CC1,"inconclusive: 39.8 µM [inhibitor, single point]"
5,COc1ccc(C2Cn3nnc(C(=O)N4CCN(C(=O)c5cc(C)ccc5C)CC4)c3CO2)cc1 (stereo not given),inactive
6,COc1ncccc1-c1n[nH]c2c1CC(=O)N(c1ccccc1)C2,inactive
7,COc1cccc(C(=O)N2CCC3(CC2)OCC(C(=O)N2CCCC2)N3C(=O)c2ccccc2)c1 (stereo not given),inactive
8,O=C(NCc1ccc(F)c(F)c1)c1ccc2nnc(-c3cc(C(F)(F)F)cc(C(F)(F)F)c3)n2c1,"inconclusive: 39.8 µM [inhibitor, single point]"
9,Cc1cc(C)cc(NC(=O)Cn2cc(C(=O)c3cccs3)c3ccccc32)c1,"inconclusive: 15.8 µM [inhibitor, partial curve, poor fit]"
10,Cc1ccc2oc(-c3ccc(C)c(NC(=O)/C=C/c4ccc(Cl)cc4)c3)nc2c1,inactive
11,Cn1ccc(Nc2cc3c(cn2)CN(CCc2ccccc2)CCN3)n1,"inconclusive: 1.78 µM [inhibitor, partial curve, poor fit]"
12,Cc1ccc(S(=O)(=O)N(CC(=O)NCCSc2ccc(Cl)cc2)c2ccccc2C)cc1,"inconclusive: 17.8 µM [inhibitor, partial curve, poor fit]"
13,NCCC(=O)N1CCC2(CC1)C(=O)NCN2C(=O)Cc1cccc(Cl)c1,"inconclusive: 39.8 µM [inhibitor, single point]"
14,COc1ccc(NC(=O)c2cc(NC(=O)C3CCC3)cc3nc(C)ccc23)cc1,inactive
15,Clc1ccccc1C1(c2ccnc(NC3CCC3)n2)CCNCC1,inactive
16,C=CCNC(=O)c1ccc2cncn2c1,inactive
17,O=C(NCCc1ccccc1F)c1nc2sccn2c1-c1cccc(C(F)(F)F)c1,"inconclusive: 56.2 µM [inhibitor, single point]"
18,CC1CCN(CC2CCCN(C(=O)C3(c4ccccc4)CC3)CC2)CC1 (stereo not given),"inconclusive: 0.708 µM [inhibitor, partial curve, poor fit]"
19,COc1ccc(CNC(=O)Cn2c(N3CCc4ccccc4C3)nc(C)cc2=O)cc1,"inconclusive: 39.8 µM [inhibitor, single point]"
20,O=C(NCCc1ccc(Cl)cc1)c1ccc2c(c1)N(Cc1ccc(Cl)cc1)C(=O)CS2,"inconclusive: 17.8 µM [inhibitor, partial curve, poor fit]"
